Measured values published in the supplement of paper PMC7125110.
± gives the standard error. Variants at the background level are over-represented here.

B1: glmS ribozyme (parent)
chain: AUAAAAGCGCCAGAACUACAGAAAUGUAGUUGACGAGGAGGAGGUUUAUCGAAUUUUCGGCGGAUGCCUCCAAA

Variants of: B1
Experiment: self-cleavage kobs at 2500 uM GlcN6P; higher = faster cleavage; RNA array
Details: with glucosamine-6-phosphate
In short: (§1)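 Sequenced MiSeq chips were the platform: E. coli RNA polymerase transcribed barcoded ribozyme variants on them in situ, and a hybridised Cy3 probe tracked these at 37 °C. After glucosamine-6-phosphate (40 μM to 10 mM) in HEPES/KCl/Mg(OAc)2 buffer was flowed in, tiles were imaged over ~14 h. Signals normalised to baseline and to non-cleaving reference variants were reduced to per-tile medians and fit to one- or two-exponential decays to obtain kobs. kcat and KM were derived through weighted Michaelis–Menten fits across concentrations.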

Variant	self-cleavage kobs at 2500 uM GlcN6P [s⁻¹]
G9C A42G C68G	< 1e-05
C11A G37A G38C	< 1e-05
G9A G40C U56A	< 1e-05
G7U G51C A53C	< 1e-05
G9C G37C A42U G43C C50U C67G C71A	< 1e-05
G9C U45G C50U G59U	< 1e-05
C10U A36G G66A	< 1e-05
G7U A36U U47G C61U U69G	< 1e-05
C8A C58A A64C	< 1e-05
G9C G29A A36C A53U	< 1e-05
G9C A48G A64U	< 1e-05
C8G G9C G35A G62C	< 1e-05
A6U G7A A14U G35A U54A	< 1e-05
U31A A52C	< 1e-05
A6U G13A U49C	< 1e-05
C10U U30A G38C	< 1e-05
A6G U31C A36G A42U	< 1e-05
G9A A14G G41U	< 1e-05
A6U G37U G40U	< 1e-05

Variant	self-cleavage kobs at 2500 uM GlcN6P [s⁻¹]
G9U G32A G43A	< 1e-05
G9C U31G G59U	< 1e-05
G7C A42G C50A U54G	< 1e-05
G9A U30A	< 1e-05
A6U A15C G38U	< 1e-05
A6G U55A C61G	< 1e-05
A6U A42C U47A U49G U56C G63A	< 1e-05
A6U G37A U49C U54A	< 1e-05
C10A A42U U47A A53C	< 1e-05
G7C A53G C70A	< 1e-05
U49G U57G	< 1e-05
A6G U55C C71A	< 1e-05
G9U G35C G51C U65A	< 1e-05
C34U G37U U56G	< 1e-05
A6U A42G A48U	< 1e-05
G7C C10U A33U U46C	< 1e-05
C11A A14C U45C	< 1e-05
C8G A33U U56G G59U	< 1e-05
A6U C8U G38A A48U	< 1e-05

Variant	self-cleavage kobs at 2500 uM GlcN6P [s⁻¹]
C34G U46A	< 1e-05
A36C A53U	< 1e-05
A6G U45G G62U U65G	< 1e-05
A6G A39U U57G A64C	< 1e-05
G7C C8G A48G U54C C67A	< 1e-05
G35C U69A	< 1e-05
G7A G63A	< 1e-05
C8U C34U G63C	< 1e-05
A6C C34U U45A U46G G51U	< 1e-05
A6C U47C A53U	< 1e-05
C8U C11A G32A A48U	< 1e-05
G7U A36C U57G G62C	< 1e-05
A14G G32A G38U	< 1e-05
G7C A33U G51U G66U	< 1e-05
G32A A33C C34G G60C	< 1e-05
C8G A12G U31C G62A	< 1e-05
G32U A33U G43U	< 1e-05
G7C A15G G38A A39G C50A	< 1e-05

Variants of: B1
Experiment: self-cleavage kobs at 160 uM GlcN6P; higher = faster cleavage; RNA array
Details: with glucosamine-6-phosphate
In short: as §1

Variant	self-cleavage kobs at 160 uM GlcN6P [s⁻¹]
G32C U54A	< 1e-05
G41U U57C A64U	< 1e-05
U31C A64U U65A	< 1e-05
G41U G63A C71U	< 1e-05
A48U U65A	< 1e-05
U31A A52C	< 1e-05
A42G C50G A64G	< 1e-05
C67U C68U C71G	7.37e-05 ± 2e-05
C16U C34G C50U	< 1e-05
A52G C61A	< 1e-05
U54C G59A	< 1e-05
A15C U45C U57G C58U C61G	< 1e-05
U49G U57G	< 1e-05
A33U G63U A64U	< 1e-05
C34U G37U U56G	< 1e-05
A33U G51U C58U	< 1e-05

Variant	self-cleavage kobs at 160 uM GlcN6P [s⁻¹]
U30C U46G U54A	< 1e-05
A53C U54G A64C	< 1e-05
A42C C50A C68U C70G	< 1e-05
C34G U46A	< 1e-05
A36C A53U	< 1e-05
G35C U69A	< 1e-05
A33U	< 1e-05
A14G G32A G38U	< 1e-05
A15G A39G U55A C58U	< 1e-05
A42U G43U G60A	< 1e-05
U45C C67U C68A	< 1e-05
A36G G40C A52U U55A A64U	< 1e-05
G32A A33C C34G G60C	< 1e-05
A36C G51C	< 1e-05
G32U A33U G43U	< 1e-05
A15G A36C	< 1e-05

Variants of: B1
Experiment: self-cleavage kobs at 10000 uM GlcN6P; higher = faster cleavage; RNA array
Details: with glucosamine-6-phosphate
In short: as §1

Variant	self-cleavage kobs at 10000 uM GlcN6P [s⁻¹]
A52G C61A	< 1e-05
C34G U46A	< 1e-05
A36C A53U	< 1e-05
G7A G63A	< 1e-05
A14G G32A G38U	< 1e-05
A36C G51C	< 1e-05
